# Source: PubChem BioAssay AID1461 (National Center for Advancing Translational Sciences (NCATS), 2008)
# In all, about 220,000 compounds went through this assay and about 2,300 (1%) were called active. The inconclusive results got no clear call from the source; some entries with a clear call stand among them for comparison. Calls follow the shape of the dose curve; as a rule, active = well fitted inhibition curve with a large enough effect; inconclusive = small, poorly fitted or top-dose-only effect, or effect the other way; inactive = no such curve, though single readings can be large or run the other way. Potencies of inconclusive entries are left out as doubtful fits.
# Biological target: Neuropeptide S receptor (Homo sapiens) (UniProt Q6W5P4)
# Sequence of UniProt Q6W5P4 (Q6W5P4 whole entry, looked up): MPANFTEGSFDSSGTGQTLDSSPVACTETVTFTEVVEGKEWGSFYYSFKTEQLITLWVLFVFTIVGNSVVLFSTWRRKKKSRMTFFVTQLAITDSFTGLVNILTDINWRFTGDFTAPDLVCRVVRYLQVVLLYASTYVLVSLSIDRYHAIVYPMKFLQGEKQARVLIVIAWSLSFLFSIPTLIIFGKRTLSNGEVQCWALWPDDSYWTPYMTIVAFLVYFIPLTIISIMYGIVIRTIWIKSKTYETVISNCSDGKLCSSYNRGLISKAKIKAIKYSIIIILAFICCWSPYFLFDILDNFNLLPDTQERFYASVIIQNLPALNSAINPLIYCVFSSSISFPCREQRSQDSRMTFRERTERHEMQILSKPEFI
# Test: qHTS Assay for Antagonists of the Neuropeptide S Receptor: cAMP Signal Transduction; also: nearly all actives have a fitted effect of over 50% in size
# Settings: CHO-NPSR cells, cAMP TR-FRET, antagonist mode; series mostly up to 38.3 µM
# Potency is read from the fitted curve at half-maximal effect; tags tell the direction and shape of the fitted curve.
row,SMILES,Potency
1,O=C(COc1ccc(/C=N/NC(=O)c2cc3ccccc3o2)cc1Br)Nc1ccccc1,active: 10 µM
2,C=CCn1c(Cc2cccs2)nnc1SCC(=O)Nc1cccc(OC)c1,inactive
3,COCc1cc(C)c(C#N)c(=S)[nH]1,inactive
4,Cc1nn(-c2ccccc2)c(C)c1/C=C/C(=O)OCC(=O)Nc1ncc(C(F)(F)F)cc1Cl,inactive
5,COCCNC(=O)CSc1nc(-c2ccccc2)cs1,inactive
6,Clc1ccc(CSc2snnc2-c2ccccc2)c(Cl)c1,"inconclusive [inhibitor, full curve, poor fit]"
7,CC1CCCCN1S(=O)(=O)c1ccc(C(=O)Nc2sccc2C(N)=O)cc1 (stereo unspecified),active: 1.58 µM
8,CCN(CC)c1nc2ccccc2nc1C(C#N)C(=O)NCCc1ccccc1 (stereo unspecified),"inconclusive [inhibitor, partial curve, poor fit]"
9,CCCCC(O)CN1CCC(c2ccccc2)CC1 (stereo unspecified),inactive
10,CCCCCCOc1ccc(N2C(=O)CC(NCCc3ccc(S(N)(=O)=O)cc3)C2=O)cc1 (stereo unspecified),inactive
11,C=CCOC(=O)C1=C(C)NC(SCC(N)=O)=C(C#N)C1c1ccc(C)cc1 (stereo unspecified),inactive
12,[O-][n+]1onc2c1CCC(=N/O)/C2=N\Nc1ccccc1,"inconclusive [activator, single point]"
13,Nc1ccc(Sc2ccc([N+](=O)[O-])cc2)cc1,inactive
14,CN1CCN(NS(=O)(=O)c2ccc(Cl)s2)CC1,inactive
15,CCC(OC(=O)C(NC(=O)c1ccccc1)c1ccccc1)C(=O)Nc1cc(C)on1 (stereo unspecified),"inconclusive [inhibitor, single point]"
16,O=C(N/N=C/c1ccc(Br)o1)/C(=C/c1ccc([N+](=O)[O-])cc1)NC(=O)c1ccccc1,"inconclusive [inhibitor, partial curve]"
17,COc1ccc(NC(=O)CN2CCC3(O)CCCCC3C2c2ccccc2OC)cc1 (stereo unspecified),"inconclusive [inhibitor, single point]"
18,CCC(C)(C)n1nnnc1CN1CCN(c2nc3cc(OC)ccc3cc2C#N)CC1,"inconclusive [inhibitor, partial curve]"
19,CCCOc1ccc(N2C(=O)CC(N(CCc3ccc(OC)c(OC)c3)C(=O)c3ccccc3)C2=O)cc1 (stereo unspecified),"inconclusive [inhibitor, single point]"
20,[N-]=[N+]=CC(=O)C(Cc1ccccc1)N1C(=O)c2ccccc2C1=O (stereo unspecified),inactive
21,CCOC(=O)c1sc(SCC(=O)Nc2ccc(N(C)C)cc2)nc1N,"inconclusive [inhibitor, single point]"
22,Cc1cc2c3c(c1C)C1(C(=O)N3C(C)(C)CC2C)C(C#N)=C(N)Oc2cc(O)ccc21 (stereo unspecified),"inconclusive [inhibitor, single point]"
23,NS(=O)(=O)c1ccc(NC(=S)NCc2ccc(F)cc2)cc1,inactive
24,C=CCn1c(SCc2ccccc2)nc2scc(-c3ccc(C)o3)c2c1=O,inactive

row,SMILES,Potency
1,COc1ccccc1NC(=O)C1=C(C)NC(SCC(=O)c2ccc(C)cc2)=C(C#N)C1c1ccco1 (stereo unspecified),active: 6.31 µM
2,Cc1cc(C)nc(NC(=NCCc2c[nH]c3ccccc23)NC(=O)c2ccco2)n1,"inconclusive [inhibitor, partial curve, poor fit]"
3,Cc1ccc(-n2nc3c(=S)[nH]nc(C)c3c2C)cc1,"inconclusive [activator, full curve]"
4,Cc1nc(SCC(=O)c2ccccc2)c(C#N)c(-c2ccco2)c1C(=O)NCc1ccco1,"inconclusive [inhibitor, partial curve]"
5,Cc1ccc(C)c(S(=O)(=O)N2CCC(c3nc4c(nnn4Cc4ccc(F)cc4)c(=O)[nH]3)CC2)c1,"inconclusive [inhibitor, partial curve]"
6,Cc1cc(N2CCN(C)CC2)nc2ccc(NC(=S)N3CCN(c4ccc(Cl)cc4)CC3)cc12,inactive
7,CCOC(=O)N1CCN(C(=O)c2ccc(Cn3c(=S)[nH]c4cc5c(cc4c3=O)OCO5)cc2)CC1,"inconclusive [inhibitor, single point]"
8,Cc1sc2nc(C3CC3)nc(SCC(=O)N3CCc4ccccc4C3)c2c1C,"inconclusive [inhibitor, single point]"
9,Cc1cc(C)c(NC(=S)NCCCSC2CCCCC2)c(C)c1,inactive
10,COC(=O)CN(c1c(C)cccc1C)S(C)(=O)=O,inactive
11,COc1cccc(/C=N/Nc2nc(Nc3ccccc3)nc(-n3nc(C)cc3C)n2)c1O,active: 2.51 µM
12,O=c1oc2ccccc2c(Cl)c1CN1CCCCC1,"inconclusive [activator, single point]"
13,CN(CC(=O)O/N=C(\N)c1ccc([N+](=O)[O-])cc1)S(=O)(=O)c1ccccc1,"inconclusive [inhibitor, single point]"
14,CCn1cc(C(=O)NCCCN2CCCCCC2)c(=O)c2cc(S(=O)(=O)N3CCc4ccccc4C3)ccc21,"inconclusive [inhibitor, single point]"
15,CC(C)c1nc(N2CCOCC2)c(C#N)c2c1CCCC2,"inconclusive [inhibitor, single point]"
16,N/C(=N\c1nc2c(c(=O)[nH]1)CCCC2)Nc1ccccc1Sc1ccccc1,"inconclusive [inhibitor, single point]"
17,Cc1ccc(S(=O)(=O)c2c(N)n(/N=C/c3ccco3)c3nc4ccccc4nc23)cc1C,"inconclusive [inhibitor, full curve, poor fit]"
18,CCOC(=O)C1=C(C)NC(SCC(=O)Nc2nc(C)cs2)=C(C#N)C1c1cccs1 (stereo unspecified),"inconclusive [inhibitor, partial curve]"
19,Cc1ccc(N(CC(=O)N/N=C/c2ccco2)S(=O)(=O)c2ccccc2)cc1,"inconclusive [inhibitor, single point]"
20,COc1ccc(C2=NN3C(C2)c2ccccc2OC32C(=O)N(C)c3ccccc32)cc1 (stereo unspecified),"inconclusive [inhibitor, partial curve]"
21,O=C(NNc1c2ccccc2nc2ccccc12)C(O)c1ccccc1 (stereo unspecified),active: 10 µM
22,CN1CCN(c2ccccc2NC(=O)c2cc3ccccc3o2)CC1,"inconclusive [inhibitor, partial curve, poor fit]"
23,Oc1ccc(CN2CCc3ccccc3C2)c2cccnc12,active: 3.98 µM
24,COc1ccc(-c2nnc(NC(=O)c3ccc(S(=O)(=O)N4COCC4(C)C)cc3)o2)cc1,inactive

row,SMILES,Potency
1,Cc1nn(-c2nc3ccccc3s2)c(N)c1-c1ccccc1,"inconclusive [inhibitor, single point]"
2,O=C(Cc1cc(=O)[nH][nH]1)N/N=C/C=C/c1ccccc1,"inconclusive [inhibitor, single point]"
3,Cc1nc([N+](=O)[O-])c(SCC(N)=O)n1Cc1ccccc1,inactive
4,Cc1ccc(NC(=O)C(OC(=O)c2cc(C)oc2C)c2ccccc2)cc1 (stereo unspecified),"inconclusive [inhibitor, single point]"
5,CCOc1ccc(-c2c(C#N)c(N)nc3c2c(=O)n(C)c(=O)n3C)cc1OC,"inconclusive [inhibitor, single point]"
6,CC1(C)CC(=O)C=C(N2CCN(C3=CC(=O)CC(C)(C)C3)CC2)C1,inactive
7,COc1cc(OC)c(S(=O)(=O)Nc2ccccc2NC(=O)CN2CCOCC2)cc1NC(C)=O,inactive
8,CC1(C)Cc2c(C#N)c(N3CCN(C(=O)c4ccco4)CC3)nc(-c3ccco3)c2CS1,active: 10 µM
9,COc1cc2[nH]c(C(=O)NN)c(N)c2cc1OC,"inconclusive [inhibitor, single point]"
10,Cc1sc2ncnc(OCC(=O)N3CCN(C(=O)c4ccco4)CC3)c2c1C,inactive
11,Cc1ccc(NC(=S)NNC(C)(C)C)cc1,"inconclusive [activator, full curve]"
12,O=C(Nc1cnn(Cc2ccccc2)c1)NC12CC3CC(CC(C3)C1)C2,"inconclusive [inhibitor, single point]"
13,COC(=O)c1c(-c2c(Cl)cccc2Cl)noc1NC(=O)NN1CCCCC1,"inconclusive [activator, partial curve]"
14,O=C(Nc1ccc2oc(-c3ccncc3)nc2c1)c1ccccc1F,inactive
15,CCOc1cc(N(CC)CC)ccc1/C=C(/C#N)c1nc2ccccc2[nH]1,"inconclusive [inhibitor, partial curve]"
16,COc1ccc(C(=O)NC(NC(=S)Nc2ccc(S(N)(=O)=O)cc2)C(Cl)(Cl)Cl)cc1 (stereo unspecified),"inconclusive [inhibitor, single point]"
17,Cc1cccc(OCCN2C(=O)C(=O)c3cccc(C)c32)c1,inactive
18,N#Cc1c(NCCCO)nc(NCc2ccccc2)c2c1CCN(Cc1ccccc1)C2,"inconclusive [inhibitor, partial curve]"
19,O=C(CC(SCCO)c1ccc2c(c1)OCO2)c1cccs1 (stereo unspecified),"inconclusive [inhibitor, single point]"
20,COc1ccc2c(C)cc(SCC(=O)NCCN3C(=O)CSC3=O)nc2c1,"inconclusive [activator, single point]"
21,CC(C)(C)OC(=O)NCCCC[C@H](NC(=O)c1nc[nH]c1C(=O)NC1CCN(C(=O)OC(C)(C)C)CC1)C(=O)OC(C)(C)C,active: 10 µM
22,COC(=O)c1ccc(N2CCN(C(C)=O)CC2)c(NC(=O)c2cccnc2)c1,inactive
23,Cc1nc2cc(NS(=O)(=O)c3c(C)c(C)cc(C)c3C)ccc2s1,"inconclusive [inhibitor, single point]"
